# The other results are listed elsewhere or left out. The data describe in vitro nicking of single-stranded DNA by Rep domains (1 h at 37 °C, 3 µM enzyme); the outer parts of the 90-letter strands are left off. Uncut reads are compared with the no-enzyme pool on a log2 scale; more negative means more cut, near 0 not cut, and no call is made. Shares of all reads are compared; uncut strands gain when others are lost, and binding without cutting may add a little.
# Tests used:
# Test in all cases: uncleaved DNA left, log2 of reads against the no-enzyme library (log2 ratio); higher = less cleavage (more negative = more Rep cleavage of the k-mer); sequences stand for … in CTCGTCCG…ACCGGAGA
# [1] = system: T1, Rep nickase domain of Muscovy duck circovirus
# T1 sequence (residues 1-111 of Rep, tag left off): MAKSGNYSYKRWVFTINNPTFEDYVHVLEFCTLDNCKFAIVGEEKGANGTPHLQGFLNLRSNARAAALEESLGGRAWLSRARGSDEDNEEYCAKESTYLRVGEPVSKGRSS
# Method: (§1)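 A pool of 90-nt single-stranded DNAs with seven random bases just before the constant AC of the nick site (name = the seven bases) was cut by 3 µM recombinant His6-SUMO-tagged Rep nickase domain (300 nM DNA, 50 mM HEPES pH 8.0, 50 mM NaCl, 1 mM MnCl2, 1 h, 37 °C, three replicates). Uncut DNA was amplified and sequenced.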
# [2] = system: T2, Rep nickase domain of banana bunchy top virus
# T2 sequence (residues 1-94 of Rep, tag left off): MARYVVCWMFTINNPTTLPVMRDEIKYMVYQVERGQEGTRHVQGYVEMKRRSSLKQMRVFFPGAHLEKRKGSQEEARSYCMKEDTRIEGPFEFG
# Method: as §1
# [3] = system: T3, Rep nickase domain of cabbage leaf curl virus
# T3 sequence (residues 1-116 of Rep, tag left off): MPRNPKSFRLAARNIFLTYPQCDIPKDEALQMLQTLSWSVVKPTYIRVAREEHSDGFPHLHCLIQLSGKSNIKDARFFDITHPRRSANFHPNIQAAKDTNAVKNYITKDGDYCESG
# Method: as §1
# [4] = system: T4, Rep nickase domain of chickpea chlorotic dwarf virus
# T4 sequence (residues 1-124 of Rep, tag left off): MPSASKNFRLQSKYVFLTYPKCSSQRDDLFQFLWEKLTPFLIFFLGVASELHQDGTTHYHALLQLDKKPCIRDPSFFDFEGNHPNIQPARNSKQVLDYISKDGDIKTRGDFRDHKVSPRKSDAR
# Method: as §1
# [5] = system: T5, Rep nickase domain of faba bean necrotic yellows virus
# T5 sequence (residues 1-98 of Rep, tag left off): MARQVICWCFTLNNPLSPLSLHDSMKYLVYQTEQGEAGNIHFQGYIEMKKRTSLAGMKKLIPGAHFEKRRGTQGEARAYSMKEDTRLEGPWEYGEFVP
# Method: as §1
# [6] = system: T6, Rep nickase domain of maize striate mosaic virus
# T6 sequence (residues 1-117 of Rep, tag left off): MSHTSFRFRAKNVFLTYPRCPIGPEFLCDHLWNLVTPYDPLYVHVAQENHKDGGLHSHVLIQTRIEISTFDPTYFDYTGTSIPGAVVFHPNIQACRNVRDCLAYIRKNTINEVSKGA
# Method: as §1
# [7] = system: T7, Rep nickase domain of porcine circovirus 2
# T7 sequence (residues 2-116 of Rep, tag left off): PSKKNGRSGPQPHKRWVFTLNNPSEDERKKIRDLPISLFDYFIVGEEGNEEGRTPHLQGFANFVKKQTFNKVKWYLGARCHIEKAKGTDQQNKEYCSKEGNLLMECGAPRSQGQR
# Method: as §1
# [8] = system: T8, Rep nickase domain of tomato yellow leaf curl virus
# T8 sequence (residues 1-136 of Rep, tag left off): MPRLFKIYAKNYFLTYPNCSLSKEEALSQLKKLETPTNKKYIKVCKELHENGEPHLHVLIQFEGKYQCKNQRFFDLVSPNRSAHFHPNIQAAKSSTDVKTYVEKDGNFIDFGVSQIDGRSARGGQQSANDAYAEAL
# Method: as §1
# [9] = system: T9, Rep nickase domain of wheat dwarf virus
# T9 sequence (residues 1-137 of Rep, tag left off): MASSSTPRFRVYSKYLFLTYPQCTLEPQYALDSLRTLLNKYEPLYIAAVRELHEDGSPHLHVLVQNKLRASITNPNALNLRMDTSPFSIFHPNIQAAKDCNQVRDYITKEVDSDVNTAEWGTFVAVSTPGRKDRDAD
# Method: as §1
Sequence,uncleaved DNA left (log2) [1],uncleaved DNA left (log2) [2],uncleaved DNA left (log2) [3],uncleaved DNA left (log2) [4],uncleaved DNA left (log2) [5],uncleaved DNA left (log2) [6],uncleaved DNA left (log2) [7],uncleaved DNA left (log2) [8],uncleaved DNA left (log2) [9]
GTGATCG,-0.0782,-0.0749,-0.448,-0.379,-0.121,-0.767,0.175,-0.00977,-0.108
CGCCCCC,-0.0895,-0.187,0.0448,-0.00842,-0.179,0.106,-0.259,-0.101,-0.0483
CTCACAT,0.0512,0.0637,0.308,-0.123,0.0471,0.11,0.149,0.136,0.297
GAAAATG,0.101,-0.0049,-0.0665,-0.263,0.0447,-0.434,0.184,-0.00537,0.107
TACGTCG,-0.00643,0.00464,-0.823,-0.464,0.0423,-1.16,0.0735,-0.0583,-0.106
TCAACAC,-0.0282,0.00514,-0.0279,-1.01,0.032,-0.691,-0.0202,-0.0585,-0.0194
AGTCATC,-0.0825,0.0967,0.254,0.53,-0.117,-0.136,-0.166,0.0408,0.142
CCGTCAT,-0.106,-0.0216,0.159,-0.305,-0.153,-0.0288,-1.38,-0.1,-0.139
GGGTGGA,-0.0706,0.0673,0.714,1.61,-0.0207,2.01,0.11,0.0414,0.104
ACATTCG,0.064,0.0429,-0.174,1.3,0.0525,0.786,0.233,0.172,0.08
ACCAAAG,0.0543,0.0717,-0.59,0.525,0.0147,-0.361,0.266,0.156,0.0668
AGTAACT,0.136,0.0326,-0.0967,-1.54,-0.13,0.632,-3.28,0.126,0.184
ACCTCGA,-0.017,-0.0378,-0.621,-0.737,0.0325,-1.08,0.0013,0.0246,0.0341
ACTAGCG,0.0784,0.154,0.293,1.67,0.0538,1.66,0.145,0.198,-0.0106
TGCGCCT,-0.157,-0.021,0.0151,-0.493,-0.0495,-0.073,-0.0829,-0.0211,-0.0852
TCTGGCA,-0.0265,-0.0429,-0.252,-0.475,0.0995,-0.677,-0.0666,0.00183,-0.172
TCTCTGT,0.0392,-0.198,0.0705,-0.447,-0.0978,-0.321,-0.15,-0.0212,-0.0906
GTGCAGG,0.077,0.0016,0.157,0.695,-0.00821,0.415,0.153,-0.0864,-0.0184
GGGCACC,-0.0576,0.0408,0.69,1.84,-0.0485,2.14,0.158,0.103,0.168
TCGGACC,0.00584,0.0873,0.221,0.831,-0.0578,0.873,0.142,-0.011,0.181
AGCCGAG,-0.0119,0.0701,0.376,0.976,-0.0542,0.2,0.104,0.0618,0.0428
ATACCCA,0.00885,0.0129,0.0625,-0.58,0.0882,0.0651,-0.431,0.0593,0.106
ATACCGC,-0.029,-0.0693,-0.271,-0.541,0.0799,-0.82,0.0518,0.0149,0.0326
ACGCTAC,-0.058,-0.182,-0.591,-1.99,-0.0935,-0.679,0.00669,-0.05,-0.188
GCCTCGT,-0.0434,-0.02,-0.0959,-0.121,-0.195,-0.457,-0.0827,0.00377,-0.177
CGGAGTT,-0.0299,-0.138,0.207,-0.565,-0.189,0.427,-0.316,-0.0523,0.0116
CGAGGTA,-0.0258,-0.0534,0.0304,0.242,-0.119,0.426,-0.325,0.0314,0.00474
ATCCAGA,0.032,-0.06,-0.0603,-0.141,-0.0537,-0.905,0.133,-0.0301,-0.0551
GTGTATC,0.0336,0.153,0.357,0.915,0.00576,1.85,0.143,0.162,0.14
CATACCC,-0.135,-0.0333,-0.0623,-1.43,-0.0388,-0.457,-0.741,-0.0188,-0.0482

# From the supplement of paper PMC7826260
